Over roughly 110,000 compounds, “z-score” has its median near -0.1; the highest 2% begin near 2. The list shows a part of the results. Residues, ends and D or L forms follow the SMILES beside them. *: point of attachment. Boc = CC(C)(C)OC(=O)*; OBn = c1ccc(CO*)cc1
These compounds were tested against Metabotropic glutamate receptor 8 (Rattus norvegicus) (UniProt P70579) (assay: rat mGluR8 modulators via GIRK flux, primary screen, cell-based, thallium flux, HTS (AID 488969)). Details: HEK293 rat mGluR8, GIRK (G protein-gated inwardly rectifying potassium channel) thallium flux, FluoZin2; at 10 µM; stronger effect = higher value; submaximal glutamate (EC20) added with thallium.
UniProt P70579, sequence (P70579 whole entry, looked up): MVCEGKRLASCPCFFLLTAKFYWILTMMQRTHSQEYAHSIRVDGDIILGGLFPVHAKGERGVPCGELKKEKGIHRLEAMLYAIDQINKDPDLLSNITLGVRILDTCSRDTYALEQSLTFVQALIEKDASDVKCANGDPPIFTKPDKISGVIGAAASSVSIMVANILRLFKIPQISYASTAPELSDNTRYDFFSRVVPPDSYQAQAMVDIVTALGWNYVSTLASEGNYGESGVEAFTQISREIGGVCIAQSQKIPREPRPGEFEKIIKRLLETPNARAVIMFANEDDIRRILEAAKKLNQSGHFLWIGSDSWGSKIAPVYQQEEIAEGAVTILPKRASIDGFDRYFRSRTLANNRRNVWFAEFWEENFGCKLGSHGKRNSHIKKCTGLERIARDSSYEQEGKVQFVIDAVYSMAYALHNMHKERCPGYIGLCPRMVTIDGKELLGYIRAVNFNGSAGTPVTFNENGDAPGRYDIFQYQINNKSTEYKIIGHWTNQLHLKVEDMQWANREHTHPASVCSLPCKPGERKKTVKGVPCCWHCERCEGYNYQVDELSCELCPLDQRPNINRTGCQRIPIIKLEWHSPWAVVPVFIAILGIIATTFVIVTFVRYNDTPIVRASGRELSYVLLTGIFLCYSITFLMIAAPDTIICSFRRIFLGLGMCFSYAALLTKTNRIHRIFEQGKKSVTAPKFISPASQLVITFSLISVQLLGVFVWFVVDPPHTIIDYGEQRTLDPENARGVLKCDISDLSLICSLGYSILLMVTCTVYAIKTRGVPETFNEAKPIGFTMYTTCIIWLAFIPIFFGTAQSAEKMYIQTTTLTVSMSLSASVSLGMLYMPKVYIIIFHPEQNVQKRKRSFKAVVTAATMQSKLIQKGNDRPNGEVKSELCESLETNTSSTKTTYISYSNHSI
Compound `COc1cccc(C(=O)Nc2ccc3nc(N4CCN(c5ncccn5)CC4)cc(C)c3c2)c1OC` has a z-score of 0.275. Work on `O=c1c(Sc2ccccc2)c(C(F)(F)F)[nH]n1-c1ccccc1` yielded a z-score of -0.206. `CC1NC2(C(=O)N(Cc3ccccc3)c3ccccc32)C2C(=O)N(c3ccccc3)C(=O)C12` (stereo not given) showed a z-score of -0.542. `Cc1nc(N)nc2c1CCCC2` was tested, and the z-score was 0.62. `COC(=O)C1C(=O)CC(C)(O)C(C(=O)OC)C1c1ccccc1F` (stereo not given) gave a z-score of -0.0913. For `S=C(Nc1ccccc1)Nc1ccc(Cl)cc1Cl`, the z-score was 1.43. `Cc1ccc(NC(=O)CSc2nnc(C)n2-c2ccccc2)cc1` gave a z-score of -0.164. Compound `Cc1ccc(C(C2C(=O)CC(C)(C)CC2=O)C2C(=O)CC(C)(C)CC2=O)s1` has a z-score of -0.289. In the case of `O=C(CCS(=O)(=O)c1cccs1)Nc1ccc(C(=O)NCc2ccccc2)cc1`, the z-score is reported as -0.131. `CN(C)c1ccc(NC(=S)NC(=O)/C=C/c2ccc(Cl)cc2)cc1` was tested, and the z-score was -0.112. `Cc1ccc(SCCCn2cnc3ccccc3c2=O)cc1` showed a z-score of -0.551. For `O=C(Nc1ccccc1)c1cccc(S(=O)(=O)N2CCCCC2)c1`, the z-score was -0.144. For `C(=C\c1cccc2ccccc12)/c1nnc(-c2cccs2)o1`, the z-score was -0.201. In the case of `CC(C)(C)c1ccc(NC(=O)COC(=O)c2ccc(NS(=O)(=O)c3ccc(F)c(F)c3)cc2)cc1`, the z-score is reported as -0.477. `N#Cc1c(N)nc2c(c1N)CC(COc1ccccc1)O2` (stereo not given) gave a z-score of -0.78. With `COc1ccc(NC(=O)CSc2nnc(-c3ccccc3)n2Cc2ccco2)cc1OC` the z-score was -0.794. For `O=C1CC(c2cccs2)CC2=C1C(c1ccccc1)n1ncnc1N2` (stereo not given), the z-score was -0.606. `Cc1ncoc1C(=O)NCc1ccccc1Cl` gave a z-score of -0.12. `O=C1OC(C(=O)O)Cc2ccccc21` (stereo not given) was tested, and the z-score was 0.465. Work on `Cc1cc2ncc(C(=O)Nc3ccccc3)c(C)n2n1` yielded a z-score of 1.7. Compound `CCC1CCCCN1Cc1cc(OC)c(O)c([N+](=O)[O-])c1` (stereo not given) has a z-score of 0.579. `Cc1ccc(NC(=O)c2cc3c(s2)CCC3)cc1S(=O)(=O)N1CCOCC1` was tested, and the z-score was 0.275. `Nc1nc(Cl)cc(Sc2ccc(F)cc2)n1` showed a z-score of -0.168. Compound `Cc1ccc(Nc2cc(C)nc(N3CCOCC3)n2)c(C)c1` has a z-score of -0.396. `COC(=O)c1ccccc1NC(=O)Cn1nc2n(C)c3ccccc3n2c(=O)c1=O` gave a z-score of -0.846. For `O=C(COC(=O)c1ccc(O)cc1)Nc1ccc(N2CCCCC2)cc1`, the z-score was 0.457. `Cc1ccc(/C=N/NC(=O)CSc2nnc(-c3ccccc3)n2-c2ccc(Cl)cc2)o1` showed a z-score of -0.309. With `Cc1nc([N+](=O)[O-])c(Sc2nc3ccccc3n2C)n1Cc1ccccc1` the z-score was -0.352. `CCOC(=O)C(=O)Nc1ccc([N+](=O)[O-])cc1OC` showed a z-score of -0.295. `O=C(NC1CCCCC1)C(c1ccc(F)cc1)N(Cc1ccco1)C(=O)CN1C(=O)c2ccccc2S1(=O)=O` (stereo not given) showed a z-score of -0.0257. Work on `COc1ccc(-c2cc(C3CCN(c4ccc(C(C)=O)cc4[N+](=O)[O-])CC3)[nH]n2)cc1` yielded a z-score of 0.0382. `O=C(N1CCOCC1)N1CCN(S(=O)(=O)c2ccccc2)C1` was tested, and the z-score was 0.354. With `CNC(=S)N/N=C(\C)c1ccc(C)c(C)c1` the z-score was 1.2. For `CCSC(=O)NC12CC3CC(CC(C3)C1)C2`, the z-score was -0.316. Work on `CCc1cc(=O)oc2cc3occ(-c4ccc(OC)c(F)c4)c3cc12` yielded a z-score of 0.111. `CCOc1cc(N2CCOCC2)c(OCC)cc1NC(=O)COC(=O)c1cccc2ccccc12` showed a z-score of -0.0215. `CSC1=C(C#N)C(c2ccc(C(C)C)cc2)CC(=O)N1` (stereo not given) gave a z-score of -0.0762. For `Cc1nc(CC(=O)O)c(-c2ccccc2)s1`, the z-score was -0.143. `O=C(Oc1ccccc1-c1nnco1)c1ccc(Cl)cc1` gave a z-score of -0.599. `C=C(C)c1cccc(C(C)(C)NC(=O)N2CCCCC2CC)c1` (stereo not given) was tested, and the z-score was -0.061. In the case of `O=C(CNC(=O)c1ccco1)OCC(=O)c1ccc2ccccc2c1`, the z-score is reported as -0.102. `COc1ccc(CN2CCN(S(=O)(=O)c3ccc(F)cc3)CC2)c(OC)c1OC` gave a z-score of -0.157. For `CCOC(=O)N1CCC(NC(=O)c2cc(C(=O)Nc3ccc(F)cc3F)ccc2CO)CC1`, the z-score was 0.353. `CS(=O)(=O)N1CCN(c2ccccc2NC(=O)c2ccc(-c3ccc(Br)cc3)o2)CC1` showed a z-score of -0.158. In the case of `O=C(COC(=O)CCSc1ccc(Cl)cc1)Nc1ccc(F)cc1`, the z-score is reported as -0.137. For `O=C(CC1S/C(=N/N=C/c2cccs2)NC1=O)Nc1ccc(Cl)c(Cl)c1` (stereo not given), the z-score was 0.218. Work on `CCOC(=O)C1CN(S(=O)(=O)c2ccc(OC)cc2)c2cc(CC(=O)OC)ccc2O1` (stereo not given) yielded a z-score of -0.284. Compound `CCCC(=O)C1=C(O)C(C(=O)OC)C(C)(C)CC1=Nc1ccc(N)cc1` (stereo not given) has a z-score of -0.0627. Work on `Cc1ccc(C(=O)C2=C(O)C(=O)N(CCN(C)C)C2c2ccccn2)o1` (stereo not given) yielded a z-score of -0.614. Work on `COc1cc(Cl)c(S(=O)(=O)n2cnc(C)c2)cc1Cl` yielded a z-score of -0.158. `CCCCCc1c(O)nc(SCC(=O)NCC2CCCO2)[nH]c1=O` (stereo not given) gave a z-score of -0.24. `Cc1cccc(NS(=O)(=O)c2cc(C(=O)NCCC3=CCCCC3)ccc2Cl)c1` was tested, and the z-score was 0.335. `COc1ccc2oc(C(=O)C3CC3)c(N)c2c1` showed a z-score of 1.19. `COc1cccc(N/C=C/C(=O)c2ccc(Br)cc2)c1` was tested, and the z-score was -0.103. For `Cc1cc(C)nc(SCc2cc(=O)c(OC(=O)c3cccc([N+](=O)[O-])c3)co2)n1`, the z-score was -1.2. In the case of `CCOc1c2ccc(C(=O)N[C@H](C)C3CCCCC3)cc2nn1CCOC`, the z-score is reported as -0.0882. `COCCNC(=O)COc1ccc(Nc2ccccc2)cc1` showed a z-score of -0.348. `Cc1cccc2c(=O)cc(C)n(Cc3ccccc3)c12` showed a z-score of -0.148. `Cc1nc2c(C)cccc2cc1C(=O)N/N=C/c1ccc(N(C)C)cc1` was tested, and the z-score was -0.9. `CCCCCC(=O)Nc1nc(C)c(-c2csc(Nc3cc(Cl)ccc3C)n2)s1` gave a z-score of -0.0486. Compound `COc1ccc(-c2nnc(-c3ccc(Br)o3)o2)cc1OC` has a z-score of -0.165. `COc1ccc(Br)cc1/C=N/NC(=O)C(c1ccncc1)N1CCOCC1` (stereo not given) gave a z-score of 0.378. Compound `O=C(NCCOc1ccccc1)c1cc2ccccc2o1` has a z-score of -0.0733. With `COc1ccccc1NC(=O)Cc1cccs1` the z-score was -0.045. Compound `COc1ccccc1OCc1ccc(C(=O)N(C)C)o1` has a z-score of -0.882. Work on `CCC(=O)N1CCN=C1SCc1ccc(F)cc1` yielded a z-score of -0.439. For `CCOC(=O)c1nn(-c2ccccc2)c2nc(-c3ccc(OC)cc3)c(C#N)c(=O)n12`, the z-score was -0.335. In the case of `Cc1ccc(C(C(=O)NC2CCCCC2)N2CCN(C(=O)c3ccco3)CC2)cc1` (stereo not given), the z-score is reported as -0.139. In the case of `CCCCCC(=O)N/N=C/c1ccc([N+](=O)[O-])o1`, the z-score is reported as 0.0192. Compound `Cc1ccc(C)c(NC(=S)NCc2ccc3c(c2)OCO3)c1` has a z-score of -1.94. In the case of `Nc1ccc(C(=O)n2c3ccccc3c3ccccc32)cc1`, the z-score is reported as -0.888. Compound `CCn1c(Cc2c(C)[nH]c3ccccc23)n[nH]c1=S` has a z-score of 0.266. `CCC(C)n1c(-c2cc(OC)c(OC)c(OC)c2)nc2nc3ccccc3nc21` (stereo not given) showed a z-score of -1.11. For `CCOC(=O)c1cc(OC(=O)c2ccccc2Br)n(-c2ccccc2)n1`, the z-score was -0.0255. Work on `COC(=O)c1ccc(C(C(=O)NC2CCCCC2)N(Cc2ccccc2)C(=O)Cc2cccs2)cc1` (stereo not given) yielded a z-score of -0.276. With `COc1ccc(NC(=O)c2ccco2)cc1NC(=O)c1ccc(Br)o1` the z-score was -0.82. `CCOC(=O)c1cn2nc(-c3ccc(OCC)cc3)cc2nc1C1CCN(C(=O)OC(C)(C)C)CC1` gave a z-score of -0.13. With `Cc1nc(SCC(=O)NCCc2ccccc2)nc(C)c1C` the z-score was 1.02. `COc1cccc(N2CC(O)=C(c3ccccc3)C2=N)c1` gave a z-score of 0.0785. Compound `Cc1cc(NC(=O)C2C3C(=O)N(Cc4ccc(Cl)cc4)C(C(=O)NC(C)(C)C)C34C=CC2(C)O4)no1` (stereo not given) has a z-score of 0.0313. `CCCc1cc(=O)[nH]c(SCC(=O)c2cc(C)n(C3CC3)c2C)n1` was tested, and the z-score was -0.914. `COC(=O)c1sc2nc(N3CCCCC3)c3c(c2c1N)CCCC3` gave a z-score of -1.19. `CS(=O)(=O)N(CC(=O)Nc1ccc(CC#N)cc1)c1ccc(C23CC4CC(CC(C4)C2)C3)cc1` gave a z-score of -0.0739. For `COc1ccccc1OCCSc1nnnn1C1CCCCC1`, the z-score was -0.203. For `CNc1nc(C)c(C(C)=O)cc1C#N`, the z-score was 0.0147. In the case of `CCN1CCN(Cc2c(O)ccc3c(=O)c(-c4ccc(OC)c(OC)c4)c(C)oc23)CC1`, the z-score is reported as -0.348. Compound `O=C(CCCNS(=O)(=O)c1cccc2nsnc12)NCc1ccc(Cl)cc1` has a z-score of -5.78e-05. In the case of `CCc1ccc(S(=O)(=O)/N=C2/C=C(Sc3ncn[nH]3)C(=O)c3ccccc32)cc1`, the z-score is reported as 0.072. `CCCCCCC(=O)Nc1nc(C)c(-c2csc(Nc3ccccc3OC)n2)s1` gave a z-score of 0.116. For `Cc1c(Cl)cccc1N1C(=O)C(N2C(=O)c3cccc([N+](=O)[O-])c3C2=O)C1c1cccs1` (stereo not given), the z-score was 0.18. `COc1ccc(C2=NN3C(=O)c4c(ccc(OC)c4OC)C3C2)cc1` (stereo not given) gave a z-score of -0.542. In the case of `Cc1ccc(NC(=O)CCSc2nnc(-c3ccco3)o2)cc1`, the z-score is reported as -2.1. `Cc1ccc2oc(=O)c3cnn(CC(=O)NCCc4ccsc4)c3c2c1` gave a z-score of -1.41. Compound `CC(C)(C)OC(=O)NCC(=O)NCC(=O)OCc1ccccc1` (Boc-Gly-Gly-OBn) has a z-score of -0.223. In the case of `Cc1ccccc1NC(=O)CSCc1nc(N)nc(Nc2ccccc2C)n1`, the z-score is reported as -0.0832. Work on `O=C(CN1CCN(Cc2ccc3c(c2)OCO3)CC1)N1CCc2[nH]c3ccc(F)cc3c2C1` yielded a z-score of 1.15. For `N#CCCNC(=O)Cn1c(COc2ccc(Cl)cc2)nc2ccccc21`, the z-score was -0.257. Compound `COc1ccc(N2CC(NC(=O)NCC(C)C)CC2=O)cc1` (stereo not given) has a z-score of -0.399. With `CCCc1cc(=O)[nH]c(Nc2ccc(OC)c(Cl)c2)n1` the z-score was -0.227. `c1ccc(C[n+]2cccc(-c3ccccc3)c2)cc1` was tested, and the z-score was -0.371. In the case of `COc1nc(N)c(S(=O)(=O)c2ccccc2C)cc1C#N`, the z-score is reported as -0.197. `CCN(CC)c1ccc(C=Nc2ccc(C)cc2)c(O)c1` showed a z-score of -0.0617. `COc1ccc(/C=C/C(=O)NCCc2ccc(S(N)(=O)=O)cc2)cc1` was tested, and the z-score was -0.28. For `COc1ccc(S(=O)(=O)Nc2cc3c(C(C)=O)c(C)oc3c3ccccc23)cc1`, the z-score was -0.384. For `O=C(NC1CCCc2ccccc21)c1ccc(=O)[nH]c1` (stereo not given), the z-score was 0.896. `Cc1cccc(CN2CCN(C(=O)CCl)CC2)c1` was tested, and the z-score was -0.0016. In the case of `CC(C)N(CC#CCC(O)(c1ccccc1)c1ccccc1)C(C)C`, the z-score is reported as 0.092. `COc1ccc(NC(=O)C2C3CCC(C3)C2C(=O)O)cc1OC` (stereo not given) gave a z-score of -0.453. `Cc1cccc(-c2cc3nc(C)cc(NCCCn4ccnc4)n3n2)c1` gave a z-score of -0.0482. In the case of `CCOC(=O)c1c(C)nc(C)c(C(=O)OCC)c1-c1ccc(Br)cc1`, the z-score is reported as -0.445.

Source: PubChem BioAssay AID488969 (Vanderbilt High Throughput Screening Facility, 2010)
